# Data published in the supplement of paper PMC10126150.
# Values marked as one replicate rest on one cluster of the flow cell; about a third of the high ones do not repeat.
# Tested on: ATP
# Test: switch fluorescence ratio, 500 uM ATP over buffer (Cy3 cluster intensity, sum of 5 cycles each) (fold (ratio)); higher = stronger signal-on switching upon ATP binding; sequences stand for … in TCGTCGGCAGCGTCAGATGTGTATAAGAGACAGTTTTTTTTTTTTTTTTTTTTTTTTT…TC
# Conditions: aptamer strand: ATP DNA aptamer (quencher-CACCTGGGGGAGTATTGCGGAGGAAGG + anchor), 100 nM annealed; ATP concentration: 500 uM; one replicate
# In short: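 Values give the fluorescence ratio for each switch-domain sequence, averaged from per-cluster ratios of summed target-cycle to summed buffer-cycle Cy3 intensity. The Cy3-labelled switching-strand clusters sat on a modified Illumina MiSeq flow-cell, were annealed to 100 nM quencher-labelled ATP aptamer, and were imaged in selection buffer, then after 15 min with 500 uM ATP at 22 °C. Five cycles ran with NaOH stripping and re-annealing between them, and clusters outside 100-1000 RFU were excluded.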
# 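Note: ATP exposure 15 min at 22 °C before imaging.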
row,Sequence,switch fluorescence ratio
1,CACCACGATG,1
2,CACCAGATTT,1
3,CACCAGGCCC,1.08
4,CACCATAAAG,0.972
5,CACCCGGGGC,1.39
6,CACCCTCTAC,1.22
7,CACCGCTTTT,2.73
8,CACCGGATCT,1.03
9,CACCTGTGCA,1.02
10,CACCTTCATT,1.12
11,CACGAAGGCG,1.02
12,CACGACGTCT,1.02
13,CACGACTTCG,0.985
14,CACGACTTTG,1
15,CACGAGATAG,1.11
16,CACGAGGTTA,0.998
17,CACGATCCGG,0.985
18,CACGATCGTG,0.984
19,CACGCCCAG,1.06
20,CACGCCTACT,1.31
21,CACGCCTGTT,1.01
22,CACGCGCTCT,0.982
23,CACGCTAAAC,3.05
24,CACGGAAAA,0.998
25,CACGGAGTAA,1.63
26,CACGGATATG,1.02

row,Sequence,switch fluorescence ratio
1,CACGGCCGTA,1.08
2,CACGGGATTC,1.04
3,CACGGGCGAT,1.03
4,CACGGGGACT,1.15
5,CACGGGGCCG,0.875
6,CACGGGTCTG,1.04
7,CACGGTAGC,1.1
8,CACGGTAGGT,1.07
9,CACGTAATGT,1.34
10,CACGTTAACG,0.967
11,CACGTTCTA,1.02
12,CACTACGGAA,2.73
13,CACTAGGGAG,0.991
14,CACTATGTCA,1.06
15,CACTCACGAC,1.36
16,CACTCATATT,1.04
17,CACTCGATGA,0.984
18,CACTCGGTAT,1.02
19,CACTCTAAGC,1.09
20,CACTGCTGGG,0.991
21,CACTGGAGTA,1.03
22,CACTTGAAGC,1.02
23,CACTTGTTAA,0.973
24,CACTTTAGAT,1.02
25,CACTTTCG,1.05
26,CACTTTGCAG,1.02

row,Sequence,switch fluorescence ratio
1,CACTTTGCAT,1.15
2,CAGAAAAGCG,1.02
3,CAGAACCTGT,1.05
4,CAGAAGAACA,0.992
5,CAGAATTAGC,0.963
6,CAGACATACC,1.37
7,CAGACATTTG,1.01
8,CAGACCGCCA,1.58
9,CAGACCTAGT,0.986
10,CAGACCTTGA,1.03
11,CAGACGTTTG,0.991
12,CAGACTGCTA,1.31
13,CAGAGAGAAC,1.01
14,CAGAGCCAGC,0.897
15,CAGAGCCTA,0.964
16,CAGAGCCTGT,1.04
17,CAGAGCGAGT,0.998
18,CAGAGGAACC,1.02
19,CAGAGTACAA,1.04
20,CAGAGTAGTG,0.973
21,CAGAGTGCGG,0.996
22,CAGATACGTT,1.04
23,CAGATCAAT,1.04
24,CAGATCATTG,1
25,CAGATCGGAG,1.03
26,CAGATCGTTA,1.02

row,Sequence,switch fluorescence ratio
1,CAGATCTAAC,0.994
2,CAGATTTTCG,1.02
3,CAGCAAAGGT,1.09
4,CAGCACCTTT,1.01
5,CAGCATTTAC,2.82
6,CAGCCAGGGT,1.23
7,CAGCCCACGG,1.11
8,CAGCCCAGGA,0.996
9,CAGCCCGGCT,0.998
10,CAGCCGGATT,1.05
11,CAGCGCAGTA,1.14
12,CAGCGCTGTT,1.04
13,CAGCGGCGCT,1.03
14,CAGCGGCTCC,1.61
15,CAGCGGTTCA,1.04
16,CAGCTACTT,1.24
17,CAGCTCTATT,1.03
18,CAGCTCTCGA,1.01
19,CAGCTGCTAC,5.71
20,CAGCTTAATC,1.06
21,CAGCTTGA,0.985
22,CAGGAATCAA,0.998
23,CAGGACATAG,0.968
24,CAGGAGGTGC,1.11
25,CAGGATACAC,1.06
26,CAGGCAAGAA,1.31

row,Sequence,switch fluorescence ratio
1,CAGGCATTTA,1.03
2,CAGGCGCCAA,1.02
3,CAGGCGGTAC,3.74
4,CAGGCTAATA,0.99
5,CAGGCTTGTC,0.989
6,CAGGGAGCGT,0.997
7,CAGGGAGGCT,0.96
8,CAGGGGCTAA,1.02
9,CAGGGGCTAG,0.97
10,CAGGGTAATA,1.06
11,CAGGGTATTG,0.982
12,CAGGGTCGG,0.983
13,CAGGGTCTGG,0.972
14,CAGGTAATTC,1.05
15,CAGGTCCGAT,1
16,CAGGTCGTGC,0.985
17,CAGGTCTGAG,1.02
18,CAGGTGACGT,1.04
19,CAGGTGCGTA,1.12
20,CAGGTGGTGC,1.09
21,CAGGTGTCCT,1.2
22,CAGGTGTCGA,1.1
23,CAGGTGTCTC,1.4
24,CAGGTTAGCG,1.01
25,CAGGTTGGGA,1.01
26,CAGTAAGTAT,0.992

row,Sequence,switch fluorescence ratio
1,CAGTAGACTC,1.06
2,CAGTAGTCCT,1.03
3,CAGTATACGA,1.06
4,CAGTATATGC,1.05
5,CAGTATATGG,0.993
6,CAGTATCTAT,1.01
7,CAGTATTCGT,0.967
8,CAGTATTTGA,0.973
9,CAGTCAATAT,2.41
10,CAGTCCTATG,1.01
11,CAGTCGAGTA,0.981
12,CAGTCGTGTC,1.02
13,CAGTCTCCTG,1.03
14,CAGTCTGTTT,0.976
15,CAGTGAACAG,1.01
16,CAGTGAGTGT,0.965
17,CAGTGATCTG,0.966
18,CAGTGCCCAT,1.01
19,CAGTGCCGA,1.06
20,CAGTGCCGAG,0.995
21,CAGTGGATAA,1.01
22,CAGTGTAGCA,1
23,CAGTGTTTTT,0.974
